Results taken from article PMC6151383 (Molecules : A Journal of Synthetic Chemistry and Natural …, 2017).

How the values were obtained:
[1] = tested on: Escherichia coli CCM 4517; experiment: Antibacterial microdilution broth MIC, E. coli; format: cell-based; details: Escherichia coli, CCM4517; 24 h incubation; read-out: MIC EC 24 h
[2] = tested on: Aspergillus fumigatus 231; experiment: Antifungal microdilution broth MIC, A. fumigatus; format: cell-based; details: 24 h incubation, read-out: MIC AF 24 h
[3] = tested on: Lichtheimia corymbifera 272; experiment: Antifungal microdilution broth MIC, L. corymbifera; format: cell-based; details: 24 h incubation, read-out: MIC LC 24 h
[4] = tested on: Pseudomonas aeruginosa CCM 1961; experiment: Antibacterial microdilution broth MIC, P. aeruginosa; format: cell-based; details: Pseudomonas aeruginosa, CCM1961; 24 h incubation; read-out: MIC PA 24 h
[5] = tested on: methicillin-resistant Staphylococcus aureus H 5996/08 (MRSA); experiment: Antibacterial microdilution broth MIC, MRSA; details: MRSA; for MIC: Staphylococcus aureus; for SI for Staphylococci (MRSA): SI = IC50 (HepG2)/MIC
[6] = tested on: Enterococcus faecalis J 14365/08; experiment: Antibacterial microdilution broth MIC, E. faecalis; format: cell-based; details: Enterococcus faecalis, J14365/08; 24 h incubation; read-out: MIC EF 24 h
[7] = Cytotoxicity, CellTiter 96 assay; format: cell-based, human; details: human, HepG2 cells, HepG2, 24 h incubation
Method: The cytotoxicity of the investigated compounds 1 and 2 was measured using the standard hepatic cell line HepG2 (Table 5). The used CellTiter 96 assay is based on the reduction of tetrazolium dye in living cells to formazan. This reduction is related to availability of NADH or NADPH. The parameter IC50, i.e., the concentration that reduces the viability of the cells to 50% of the maximal viability, was used as a measure of cytotoxicity. It was not possible to determine the exact IC50 values of two derivatives (compounds 2a, 2b) due to their limited solubility in the cell culture medium used in this experiment.
All of the compounds were tested to determine their cytotoxicity in the human hepatocellular liver carcinoma cell line HepG2 (passages 5–6 and 3–8; ECACC, Salisbury, UK) using a standard colorimetric method that involves measuring the reduction of a tetrazolium salt (CellTiter(R) 96 AQueous One Solution Cell Proliferation Assay; Promega, Fichtburg, MA, USA).
The cells were cultured in Minimum Essentials Eagle Medium (Sigma-Aldrich) supplemented with 10% foetal bovine serum (PAA), 1% L-glutamine solution (Sigma-Aldrich) and a non-essential amino acid solution (Sigma-Aldrich) in a humidified atmosphere containing 5% CO2 at 37 °C. The investigated compounds were dissolved in DMSO and a small volume was added to the cell culture. The tested compounds were prepared in triplicates at concentrations ranging from 1 to 1500 µM. Simultaneously, the following types of controls were also included in triplicates: determination of 100% viability and 0% viability (the cells were treated with 10% DMSO), no cell control and vehiculum controls. […] After 2 h incubation at 37 °C, absorbance of samples was recorded at 490 nm (Infinita M200, TECAN, Grödig, Austria). A standard toxicological parameter IC50 was calculated by nonlinear regression from a semilogarithmic plot of incubation concentration versus percentage of absorbance relative to untreated controls using GraphPad Prism 6 software (GraphPad Software Inc., San Diego, CA, USA). IC50 is the inhibitory concentration that reduces the cell viability to 50% of the maximal (control) viability.

[8] = tested on: Staphylococcus aureus CCM 4516/08; experiment: Antibacterial microdilution broth MIC, S. aureus; format: cell-based; details: CCM4516, 24 h incubation, read-out: MIC SA 24 h
[9] = tested on: Staphylococcus epidermidis H 6966/08; experiment: Antibacterial microdilution broth MIC, S. epidermidis; format: cell-based; details: Staphylococcus epidermidis, H6966/08; 24 h incubation; read-out: MIC SE 24 h
Candida glabrata 20/I = experiment: Antifungal microdilution broth MIC, C. glabrata; format: cell-based; details: Nakaseomyces glabratus, 24 h incubation, read-out: MIC CG 24 h
[10] = tested on: Candida albicans ATCC 44859; experiment: Antifungal microdilution broth MIC, C. albicans; format: cell-based; details: ATCC44859, 24 h incubation, read-out: MIC CA 24 h
Trichosporon asahii 1188 = experiment: Antifungal microdilution broth MIC, T. asahii; format: cell-based; details: 24 h incubation, read-out: MIC TA 24 h
Candida tropicalis 156 = experiment: Antifungal microdilution broth MIC, C. tropicalis; format: cell-based; details: 24 h incubation, read-out: MIC CT 24 h
Candida krusei E28 = experiment: Antifungal microdilution broth MIC, C. krusei; format: cell-based; details: Pichia kudriavzevii, 24 h incubation, read-out: MIC CK 24 h

SMILES | MIC [1] [µM] | MIC [2] [µM] | MIC [3] [µM] | MIC [4] [µM] | MIC ([5]; 48 h, read-out: MIC MRSA 48 h) [µM] | MIC [6] [µM] | IC50 at 24 h [7] [µM] | MIC [8] [µM] | MIC ([5]; 24 h, read-out: MIC MRSA 24 h) [µM] | MIC [9] [µM] | MIC (Candida glabrata 20/I) [µM] | MIC [10] [µM] | MIC (Trichosporon asahii 1188) [µM] | MIC (Candida tropicalis 156) [µM] | MIC (Candida krusei E28) [µM] | SI for Staphylococci (MRSA) [5]
O=S(=O)(Nc1ncccn1)c1ccc(N=Cc2cc(I)ccc2O)cc1 [Compound 2e, 4-[(2-Hydroxy-5-iodobenzylidene)amino]-N-(pyrimidin-2-yl)benzenesulfonamide] | 250 (≈ 120 µg/mL) | 250 (≈ 120 µg/mL) | > 500 | 500 (≈ 240 µg/mL) | 250 (≈ 120 µg/mL) | 250 (≈ 120 µg/mL) | 156 | 250 (≈ 120 µg/mL) |  |  |  |  |  |  |  | 
O=S(=O)(Nc1ncccn1)c1ccc(N=Cc2cc(Cl)cc(Cl)c2O)cc1 [Compound 2m, 4-[(3,5-Dichloro-2-hydroxybenzylidene)amino]-N-(pyrimidin-2-yl)benzenesulfonamide] | > 500 | 250 (≈ 106 µg/mL) | 500 (≈ 212 µg/mL) | > 500 | 62.5 (≈ 26.5 µg/mL) | > 500 | 114 |  | 62.5 (≈ 26.5 µg/mL) | 31.2 (≈ 13.2 µg/mL) | 31.2 (≈ 13.2 µg/mL) |  |  |  |  | 
O=S(=O)(Nc1ncccn1)c1ccc(N=Cc2cc(Cl)cc(Br)c2O)cc1 [Compound 2n, 4-[(3-Bromo-5-chloro-2-hydroxybenzylidene)amino]-N-(pyrimidin-2-yl)benzenesulfonamide] | 500 (≈ 234 µg/mL) | 250 (≈ 117 µg/mL) | 500 (≈ 234 µg/mL) | > 500 | 15.6 (≈ 7.31 µg/mL) | > 500 | 92.9 | 31.2 (≈ 14.6 µg/mL) |  | 31.2 (≈ 14.6 µg/mL) | 31.2 (≈ 14.6 µg/mL) | 31.2 (≈ 14.6 µg/mL) |  |  |  | 
Cc1ccc(O)c(C=Nc2ccc(S(=O)(=O)Nc3ncccn3)cc2)c1 [Compound 2g, 4-[(2-Hydroxy-5-methylbenzylidene)amino]-N-(pyrimidin-2-yl)benzenesulfonamide] | > 250 | > 500 | > 500 | > 250 | 125 (≈ 46.1 µg/mL) | > 250 | ~570 | > 250 | 125 (≈ 46.1 µg/mL) |  | > 500 | > 500 | > 500 | > 500 | > 500 | 
O=S(=O)(Nc1ncccn1)c1ccc(N=Cc2cc(Br)ccc2O)cc1 [Compound 2d, 4-[(5-Bromo-2-hydroxybenzylidene)amino]-N-(pyrimidin-2-yl)benzenesulfonamide] | 500 (≈ 217 µg/mL) | 250 (≈ 108 µg/mL) | > 500 | 500 (≈ 217 µg/mL) | 500 (≈ 217 µg/mL) | > 500 | 159 | 500 (≈ 217 µg/mL) |  | 250 (≈ 108 µg/mL) |  |  |  | 250 (≈ 108 µg/mL) | 250 (≈ 108 µg/mL) | 
Nc1ccc(S(=O)(=O)Nc2ncccn2)cc1 [SDZ 1, sulfadiazine, reference compound] | > 500 |  |  | > 500 | > 500 | > 500 |  | 500 (≈ 125 µg/mL) | 500 (≈ 125 µg/mL) | > 500 |  |  |  |  |  | 
O=S(=O)(Nc1ncccn1)c1ccc(N=Cc2cc(Cl)cc(I)c2O)cc1 [Compound 2o, 4-[(5-Chloro-2-hydroxy-3-iodobenzylidene)amino]-N-(pyrimidin-2-yl)benzenesulfonamide] | 250 (≈ 129 µg/mL) |  | 250 (≈ 129 µg/mL) | 500 (≈ 257 µg/mL) | 15.6 (≈ 8.04 µg/mL) | 250 (≈ 129 µg/mL) | 59.2 | 15.6 (≈ 8.04 µg/mL) |  | 31.2 (≈ 16.1 µg/mL) | 7.81 (≈ 4.02 µg/mL) | 7.81 (≈ 4.02 µg/mL) | 7.81 (≈ 4.02 µg/mL) | 7.81 (≈ 4.02 µg/mL) | 7.81 (≈ 4.02 µg/mL) | 
COc1ccc(O)c(C=Nc2ccc(S(=O)(=O)Nc3ncccn3)cc2)c1 [Compound 2h, 4-[(2-Hydroxy-5-methoxybenzylidene)amino]-N-(pyrimidin-2-yl)benzenesulfonamide] | > 500 | > 500 | > 500 | 500 (≈ 192 µg/mL) | > 500 | > 500 | 351 | 500 (≈ 192 µg/mL) |  |  | 500 (≈ 192 µg/mL) | 500 (≈ 192 µg/mL) | 500 (≈ 192 µg/mL) | 500 (≈ 192 µg/mL) | > 500 | inactive
O=S(=O)(Nc1ncccn1)c1ccc(N=Cc2cccc(Cl)c2O)cc1 [Compound 2l, 4-[(3-Chloro-2-hydroxybenzylidene)amino]-N-(pyrimidin-2-yl)benzenesulfonamide] | > 500 | 250 (≈ 97.2 µg/mL) | > 500 | > 500 | > 500 | > 500 | 160 | > 500 |  | > 500 |  |  |  |  | 250 (≈ 97.2 µg/mL) | inactive
O=S(=O)(Nc1ncccn1)c1ccc(N=Cc2c(O)cccc2Cl)cc1 [Compound 2k, 4-[(2-Chloro-6-hydroxybenzylidene)amino]-N-(pyrimidin-2-yl)benzenesulfonamide] | > 250 | > 250 | > 250 | > 250 | > 250 | > 250 | 102 | > 250 |  | > 250 | > 250 | > 250 | > 250 | > 250 | > 250 | inactive
O=[N+]([O-])c1ccc(O)c(C=Nc2ccc(S(=O)(=O)Nc3ncccn3)cc2)c1 [Compound 2f, 4-[(2-Hydroxy-5-nitrobenzylidene)amino]-N-(pyrimidin-2-yl)benzenesulfonamide] | 250 (≈ 99.8 µg/mL) | > 500 | 500 (≈ 200 µg/mL) | 500 (≈ 200 µg/mL) | 250 (≈ 99.8 µg/mL) | 500 (≈ 200 µg/mL) | 140 | 250 (≈ 99.8 µg/mL) |  | 500 (≈ 200 µg/mL) | 250 (≈ 99.8 µg/mL) | 500 (≈ 200 µg/mL) | > 500 | > 500 | > 500 | 
OC(Cn1cncn1)(Cn1cncn1)c1ccc(F)cc1F [FLU, fluconazole, reference compound] |  | > 500 | > 500 |  |  |  |  |  |  |  | 31.2 (≈ 9.57 µg/mL) | 0.24 (≈ 0.0735 µg/mL) | 250 (≈ 76.6 µg/mL) | > 500 | 125 (≈ 38.3 µg/mL) | 
O=S(=O)(Nc1ncccn1)c1ccc(N=Cc2cc(O)ccc2O)cc1 [Compound 2i, 4-[(2,5-Dihydroxybenzylidene)amino]-N-(pyrimidin-2-yl)benzenesulfonamide] | 500 (≈ 185 µg/mL) |  | 500 (≈ 185 µg/mL) | 500 (≈ 185 µg/mL) | 31.2 (≈ 11.6 µg/mL) | 250 (≈ 92.6 µg/mL) | > 500 | 31.2 (≈ 11.6 µg/mL) |  | 15.6 (≈ 5.79 µg/mL) | 15.6 (≈ 5.79 µg/mL) | 15.6 (≈ 5.79 µg/mL) | 15.6 (≈ 5.79 µg/mL) | 15.6 (≈ 5.79 µg/mL) | 31.2 (≈ 11.6 µg/mL) | 
O=S(=O)(Nc1ncccn1)c1ccc(N=Cc2cc(F)ccc2O)cc1 [Compound 2b, 4-[(5-Fluoro-2-hydroxybenzylidene)amino]-N-(pyrimidin-2-yl)benzenesulfonamide] | > 250 | > 250 | > 250 | > 250 | > 250 | > 250 | > 250 | > 250 |  | > 250 | > 250 | > 250 | > 250 | > 250 | > 250 | inactive

In brackets after ≈: the same amount, converted by molar mass. Like-named read-outs stand apart in the source and are kept apart here.
